Test results: US8263340B2, “Constitutively active mutants of the prolactin receptor” (Institut National de la Sante et de la Recherche Medicale …, priority 2007, dated 2012)

Assays:
mutant I146L = assay: Effect of PRLR inhibitors on proliferation of Ba/F3 cells expressing mutant I146L; format: cell-based, murine; conditions: increasing inhibitor concentrations, no PRL, 3 days
Description: (§1) Cells were starved for 6 hours in 1% FCS RPMI medium with additives (no PRL), then distributed in 96 well-plates at a density of 5×10^4 cells/well in a final volume of 100 μL. One hundred μL, of [2×] hPRL (and/or antagonist) diluted in the same medium were added after starvation period. Cell survival/proliferation was estimated after 2-3 days of hormonal stimulation by adding 10-20 μL, of WST-1 tetrazolium salt, which is metabolized by living cells (BERNICHTEIN et al., Endocrine, 20, 177-190, 2003). Optical density at 450 nm (OD450) was measured after 1-3 hours of colorimetric reaction using an ELISA plate reader. The experiments were routinely performed at least three times in triplicate or quadruplicate.
Proliferation of stable Ba/F3 cell populations was evaluated in poor medium (1% FCS) in the presence of WT hPRL, or of the PRLR antagonist De11-9-G129R-hPRL, or of AG490, for 3 days. The results are illustrated in FIGS. 12 and 13.

hPRL = assay: Binding affinity of WT and mutated PRLR for hPRL, [125I]-hPRL competition with Scatchard analysis, stably transfected HEK 293 cell homogenates; design: species or system human; conditions: stable HEK 293 clones, overnight at room temperature
Description: Binding affinities of mutated PRLR for hPRL were determined using cell homogenates of stably transfected HEK 293, following a procedure previously described (KINET et al., J Biol Chem, 274, 26033-26043, 1999). Briefly, recombinant hPRL, produced in bacteria E. coli using the pT7L expression vector, and purified as described previously (PARIS et al., Biotechnol Appl Biochem, 12, 436-449, 1990), was iodinated using the Iodogen method, and its specific activity was in the range of 4-5 μCi/μg. Binding assays were performed overnight at room temperature using 150-300 μg cell homogenate protein in the presence of 20,000-30,000 cpm [^125I]-hPRL and increasing concentrations of unlabeled hPRL (competitor). Scatchard analysis was performed to determine the binding affinity of mutated PRLR and the number of PRLR per cell in stable clones or populations.

[1] = test system: LHRE-luciferase reporter (Stat5); assay: LHRE-luciferase reporter assay in HEK 293 cells expressing WT or mutated hPRLR; format: cell-based, human
Description: The human PRLR cDNA inserted into the pc/DNA3 eukaryotic vector (InVitrogen, Carlsbad, Calif.) has been generated as described previously (LOCHNAN et al, Mol Cell Endocrinol 114:91-99, 1995; GOFFIN et al, J Biol Chem 271:16573-16579, 1996). The PRLR-responsive LHRE-luciferase reporter gene carries the sequence encoding the firefly luciferase gene under the control of a 6-repeat sequence of the lactogenic hormone response element (LHRE) followed by the minimal thymidine kinase promoter (GOFFIN et al., J Biol Chem, 271, 16573-16579, 1996). LHRE is the DNA binding element of the signal transducer and activator of transcription Stat5, one of the signaling proteins activated by the PRLR once it is activated (WAKAO et al, EMBO J. 13, 2182-2191, 1994).
Cells were routinely cultured in DMEM medium supplemented with 10% FCS, 2 mM glutamine, 50 U/mL penicillin, 50 μg/mL streptomycin. […]
After trypsinization, cells were counted and aliquoted in 96-well plates at a density of 50,000 cells/100 μL/well. […] Luciferase activity (only firefly luciferase for stable clones, and both firefly and renilla luciferases for transient transfections) for each experimental condition was counted in 10-20 μL of cell lysates for 10 seconds using a luminometer (Lumat LB 9501, Berthold, Nashua, N.H.). […]

PRLR phosphorylation = assay: PRLR tyrosine phosphorylation by immunoprecipitation and western blot in transfected HEK 293 cells; format: cell-based, human
Description: Receptor phosphorylation on tyrosine residues is the first step of PRLR activation.
Transient or stable transfected cells were starved overnight in FCS-free medium before hormonal stimulation. The next day, cells were stimulated (5-30 min at 37° C.) using various concentrations of WT hPRL as indicated. At the end of the stimulation, cells were washed twice with ice-cold saline buffer and cell pellets were kept frozen until used. Cells were solubilized in 0.5-1 ml lysis buffer (30 min under gentle rotation at 4° C.). Lysates were centrifuged for 10 min at 13,000×g, then supernatants were quantified for their protein content by Bradford assay and used for immunoprecipitation.
For immunoprecipitation studies, 0.5-1 mg of total lysate were incubated with anti-human PRLR (anti extracellular domain of the human PRLR, Zymed, clone 1A2B1), used at 1-5 μl/ml. After overnight rotation at 4° C., immune complexes were captured using 20 μl Protein A Sepharose slurry for 1 additional hour rotation at 4° C. Protein A complexes were precipitated by centrifugation, pellets were washed 3 times in lysis buffer and boiled in 15 μl reducing SDS sample buffer for 5 min at 95° C. Finally, immunoprecipitated samples were analysed using 7.5% SDS-PAGE. Electrophoretic transfer onto nitrocellulose membranes (Bio-Rad) was performed as described (LLOVERA et al., Oncogene, 19, 4695-4705, 2000). […]

Ba/F3 cells [2] = assay: Proliferation assay (WST-1) of Ba/F3 cells expressing WT PRLR or I146L or I76V mutant; format: cell-based, murine; conditions: 1% FCS
Description: Ba/F3 cells are a pro-B murine cell line dependent on IL-3 for growth. Cells were transfected by electroporation using 5-20 μg of plasmid encoding the WT or mutated human PRLR(CMV promoter), then the populations stably expressing the receptor was selected by several passages in G418-containing medium. Ba/F3-hPRLR cells were routinely maintained in RPMI 1640 medium supplemented with 10% heat-inactivated FCS, 2 mM glutamine, 50 U/mL penicillin, 50 μg/mL streptomycin, 700 μg/mL G-418 (for selection of stably transfected cells), and 10-100 ng/mL WT hPRL instead of IL-3 as the growth factor.
as §1

Ba/F3 cells [3] = assay: Cell cycle / apoptosis of transfected Ba/F3 stable populations by FACS (propidium iodine); format: cell-based, murine; conditions: absence of PRL, minimal medium, 30 h
Description: The cell cycle of transfected Ba/F cells (stable populations) was studied by FACS analysis, using propidium iodine labelling as previously described (JEAY et al., Endocrinology 142:147-156, 2001). Cells were put in minimal medium, with or without PRL for the indicated time.

Stat5 = Stat5 phosphorylation by immunoprecipitation and western blot in Ba/F3 populations; format: cell-based, murine; conditions: absence of PRL stimulation
Description: Stat5 is the main PRLR signalling mediator, and a known anti-apoptotic factor in Baf cells. Its phosphorylation was analyzed by immunoprecipitation and western blot, using the protocol described in Example 3 for the analysis of PRLR phosphorylation.
Immunoprecipitation was performed with anti-STAT5 antibodies (c17, SantaCruz). The membranes were incubated with anti-PY antibody (4G10, Upstate), and when required re-incubated with anti-STAT5 (c17, SantaCruz) antibodies.
The results are illustrated by FIG. 16: (−)=no PRL, (+)=0,5 μg/ml PRL.

| Molecule | inhibition of strong constitutive activity (proliferation) of mutant I146L (mutant I146L) | Kd (hPRL) [nM] | basal activity (unstimulated cells), luciferase ([1]; no PRL, compared to WT receptor) | fold stimulation induced by PRL ([1]; stable clones, PRL 1 μg/ml, 24 hours) [fold] | constitutive phosphorylation of PRLR (PRLR phosphorylation; absence of PRL stimulation) | effect of PRL stimulation on PRLR phosphorylation (PRLR phosphorylation; with PRL stimulation) | effect of PRL on proliferation (Ba/F3 cells [2]; 10 or 100 ng/ml hPRL) | constitutive proliferation / survival (Ba/F3 cells [2]; absence of PRL) | apoptosis (Ba/F3 cells [3]) | phosphorylation of Stat5 (Stat5) |
| --- | --- | --- | --- | --- | --- | --- | --- | --- | --- | --- |
| N#CC(=Cc1ccc(O)c(O)c1)C(=O)NCc1ccccc1 [AG490, N-Benzyl-3,4-dihydroxy-benzylidenecyanoacetamide, reference compound] | dose-dependent effect | – | – | – | – | – | – | – | – | – |
| I146L: mutant human prolactin receptor wherein the Ile residue at position 146 is substituted by a Leu residue (protein) QLPPGKPEIFKCRSPNKETFTCWWRPGTDGGLPTNYSLTYHREGETLMHECPDYITGGPNSCHFGKQYTSMWRTYIMMVNATNQMGSSFSDELYVDVTYIVQPDPPLELAVEVKQPEDRKPYLWIKWSPPTLIDLKTGWFTLLYELRLKPEKAAEWEIHFAGQQTEFKILSLHPGQKYLVQVRCKPDHGYWSAWSPATFIQIPSDFTMNDTTVWISVAVLSAVICLIIVWAVALKGYSMVTCIFPPVPGPKIKGFDAHLLEKGKSEELLSALGCQDFPPTSDYEDLLVEYLEVDDSEDQHLMSVHSKEHPSQGMKPTYLDPDTDSGRGSCDSPSLLSEKCEEPQANPSTFYDPEVIEKPENPETTHTWDPQCISMEGKIPYFHAGGSKCSTWPLPQPSQHNPRSSYHNITDVCELAVGPAGAPATLLNEAGKDALKSSQTIKSREEGKATQQREVESFHSETDQDTPWLLPQEKTPFGSAKPLDYVEIHKVNKDGALSLLPKQRENSGKPKKPGTPENNKEYAKVSGVMDNNILVLVPDPHAKNVACFEESAKEAPPSLEQNQAEKALANFTATSSKCRLQLGGLDYLDPACFTHSFH | – | 0.38 | much higher | 4 | constitutively phosphorylated | no detectable effect | did not markedly influence | proliferation similar to that induced by PRL on cells expressing WT PRLR | never undergo apoptosis | strong phosphorylation |
| De11-9-G129R-hPRL: pure PRLR antagonist, variant of human prolactin, which interferes with the mechanism of receptor activation by PRL (protein) RCQVTLRDLFDRAVVLSHYIHNLSSEMFSEFDKRYTHGRGFITKAINSCHTSSLATPEDKEQAQQMNQKDFLSLIVSILRSWNEPLYHLVTEVRGMQEAPEAILSKAVEIEEQTKRLLERMELIVSQVHPETKENEIYPVWSGLPSLQMADEESRLSAYYNLLHCLRRDSHKIDNYLKLLKCRIIHNNNC | dose-dependent effect | – | – | – | – | – | – | – | – | – |
